{
  "source": "PubChem BioAssay AID445",
  "about": "(National Center for Advancing Translational Sciences (NCATS), 2006)",
  "note": "Screen size: about 110,000 compounds; about 40 (0.04%) were called active. The shares of active, inactive and inconclusive entries below differ from those in the screen. The call rests on the fitted dose curve; in most records, active means well fitted curve in the direction sought with a large enough effect in the signal ratio (not every such curve was filed as active); inconclusive means small, poorly fitted or top-dose-only effect, or a change in a side signal; inactive means flat fitted curve, though single readings scatter; the % refers to the signal ratio. Where the call is inconclusive, the potency comes from a doubtful curve fit. Potency means the concentration at half of the fitted maximal effect.",
  "data": [
    {"assay": "IkB Signaling;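 on IkBa stabilization activation: 0% = basal untreated cells and 100% = reference inhibitor full response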", "details": "ABC-DLBCL IkBa-CBG/CBR dual luciferase ratio (green luciferase fused to IkBa over red control in OCI-Ly3 lymphoma cells), 4 h; IkBa stabilization activation: at 57.1 µM (top of the series), scaled: untreated 0%, proteasome inhibitor 100% unless noted", "in_short": "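Curves were fitted separately to fusion (green), unfused (red) and ratio luminescence, then classed by r2, magnitude and activity. Cells: OCI-Ly3, 4 h compound plus doxycycline at 37C; 10 uM MG-132 defined full response.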", "values": [
      {"compound": "COC(=O)c1cnn(-c2ccc(C(=O)Nc3ccc(OC(F)(F)F)cc3)cc2)c1N", "IkBa stabilization activation": "inconclusive: -1.21% [signal inhibitor]"},
      {"compound": "OC[C@@H]1O[C@@H](n2cnc3cncnc32)[C@@H](O)[C@H]1O", "IkBa stabilization activation": "inactive"},
      {"compound": "Cc1nc(N2CCCC2)c2nnn(Cc3ccccc3Cl)c2n1", "IkBa stabilization activation": "inactive"},
      {"compound": "CCn1ccc(C(=O)Oc2ccc(C(C)C)cc2)n1", "IkBa stabilization activation": "inactive"},
      {"compound": "CC(NC(=O)c1c2c(nc3ccccc13)C(=O)N(C1CCCCC1)C2)c1ccccc1", "note": "(stereo not given)", "IkBa stabilization activation": "inconclusive: 16.1% [signal inhibitor]"},
      {"compound": "COc1ccc(Cn2c(SCC(=O)Nc3ccc(OC)cc3)nc3ccccc32)cc1", "IkBa stabilization activation": "inactive"},
      {"compound": "CN(C)S(=O)(=O)c1ccc2c(c1)N(CC(=O)N1CCN(c3cccc(Cl)c3)CC1)CCS2", "IkBa stabilization activation": "inconclusive: 0.331% [signal inhibitor]"},
      {"compound": "COc1cc(NC(=O)Nc2nnc(N3CCCCCC3)s2)cc(OC)c1", "IkBa stabilization activation": "inconclusive: 0.563% [signal inhibitor]"},
      {"compound": "CC1CCCN(Cc2c(O)ccc3c(=O)c(Oc4ccc(C(C)(C)C)cc4)c(C(F)(F)F)oc23)C1", "note": "(stereo not given)", "IkBa stabilization activation": "inconclusive: 9.53% [signal inhibitor]"},
      {"compound": "COc1cc(NC(=O)Cn2ncc3c2-c2ccccc2OC3)cc(OC)c1OC", "IkBa stabilization activation": "inconclusive: 13.3% [signal inhibitor]"},
      {"compound": "CCOc1ccccc1CNC(=O)c1cnc2c(-c3ccc(OCC)c(OCC)c3)c(C)nn2c1C", "IkBa stabilization activation": "inactive"},
      {"compound": "Nc1cccc2c(N)cccc12", "Potency": "inconclusive: 39.8 µM [rising, partial curve]"},
      {"compound": "O=C(Cn1cc(SCc2ccccc2)c2ccccc21)N1CCCCCC1", "IkBa stabilization activation": "inconclusive: -1.63% [signal inhibitor]"},
      {"compound": "COc1cccc(CNc2ccc(N3CCCCC3)cc2)c1OC", "IkBa stabilization activation": "inconclusive: 13.1% [signal inhibitor]"},
      {"compound": "CC(=O)NCCNc1nc(-c2cccnc2)nc2ccccc12", "IkBa stabilization activation": "inactive: -1.52% [at 11.4 µM, scaled: untreated 0%, proteasome inhibitor 100%]"},
      {"compound": "Cc1nnc(SCCC(=O)Nc2nc(-c3ccccc3)ns2)s1", "IkBa stabilization activation": "inconclusive: -1.61% [signal inhibitor]"},
      {"compound": "Cc1ccc(N2CCN(c3c(CN4CCCC4)c(=O)oc4ccccc34)CC2)c(C)c1", "Potency": "inconclusive: 10 µM [signal inhibitor]"},
      {"compound": "COCCCNC(=O)c1c(NC(=O)c2cc(=O)c3ccccc3o2)sc2c1CCCC2", "IkBa stabilization activation": "inconclusive: 2.4% [signal inhibitor]"},
      {"compound": "O=C(NCc1ccccc1)c1ccc2c(c1)N(Cc1cccc(Cl)c1)C(=O)c1ccccc1S2(=O)=O", "IkBa stabilization activation": "inactive"},
      {"compound": "Cc1ccc2nc(-c3ccc(Cl)c(NC(=O)c4cccc([N+](=O)[O-])c4C)c3)oc2c1", "IkBa stabilization activation": "inconclusive: 7.62% [signal inhibitor]"},
      {"compound": "CCOC(=O)c1noc2ncnc(N3CCN(c4cccc(Cl)c4)CC3)c12", "IkBa stabilization activation": "inconclusive: -0.936% [signal inhibitor]"},
      {"compound": "COc1ccc2[nH]c(=O)c(CN(Cc3ccco3)Cc3nnnn3Cc3ccccc3)cc2c1", "IkBa stabilization activation": "inactive"},
      {"compound": "COC(=O)c1cccc(S(=O)(=O)N2CCC(NC(=O)NC34CC5CC(CC(C5)C3)C4)CC2)c1", "IkBa stabilization activation": "inconclusive: 7.46% [signal inhibitor]"},
      {"compound": "CCCCSc1nc2c(c(=O)[nH]c(=O)n2C)n1CCc1ccccc1", "IkBa stabilization activation": "inactive"},
      {"compound": "COc1ccc(-c2nc3nc(C)cc(N4CCN(c5cccc(C(F)(F)F)c5)CC4)n3n2)cc1", "IkBa stabilization activation": "inconclusive: 1.1% [signal inhibitor]"},
      {"compound": "COc1ccc(CCNC(=O)c2cc3c(s2)-c2c(C)cccc2OC3)c(OC)c1", "IkBa stabilization activation": "inconclusive: 1.14% [signal inhibitor]"},
      {"compound": "Cc1cc(C)cc(NC(=O)Cn2nnc(C(=O)NCc3ccccc3Cl)c2N)c1", "IkBa stabilization activation": "inactive"},
      {"compound": "Cc1cccc2c1-c1sc(C(=O)NCc3ccc(Cl)cc3)cc1CO2", "IkBa stabilization activation": "inconclusive: 2.91% [signal inhibitor]"},
      {"compound": "Cc1ccc(-c2nc(S(=O)(=O)c3ccc(C)cc3)c(SCC(=O)Nc3ccc(F)cc3)o2)cc1", "IkBa stabilization activation": "inactive"},
      {"compound": "CCN(Cc1ccccc1)C(=O)c1cc2c(=O)oc3ccc(C)cc3c2s1", "IkBa stabilization activation": "inconclusive: -0.637% [signal inhibitor]"},
      {"compound": "Cc1cc(C(=O)Cn2nnc(-c3ccc(Cl)cc3)n2)c(C)n1CC1CCCO1", "note": "(stereo not given)", "IkBa stabilization activation": "inconclusive: 7.45% [signal inhibitor]"},
      {"compound": "CCOc1ccccc1CNC(=O)c1cn(-c2ccc(OC)cc2)c(=O)c2ccccc12", "IkBa stabilization activation": "inactive"},
      {"compound": "CCOc1ccc(NC(C)=O)cc1", "IkBa stabilization activation": "inactive"},
      {"compound": "COc1ccccc1Cn1c(=O)c2ccccc2n2c(SCc3csc(C)n3)nnc12", "IkBa stabilization activation": "inconclusive: 2.46% [signal inhibitor]"},
      {"compound": "COc1ccc(NC(=O)c2oc3ccccc3c2NC(=O)C(C)(C)C)cc1", "IkBa stabilization activation": "inconclusive: 5.05% [signal inhibitor]"},
      {"compound": "Cc1cccc(NC(=O)CSc2nc(=O)n(Cc3ccco3)c3c2CCC3)c1C", "IkBa stabilization activation": "inconclusive: 3.27% [signal inhibitor]"},
      {"compound": "CN1CCC[C@@H]1CCO[C@](C)(c1ccccc1)c1ccc(Cl)cc1", "IkBa stabilization activation": "inconclusive: 0.357% [signal inhibitor]"},
      {"compound": "O=c1c(N2CCN(c3cccc(Cl)c3)CC2)csc2ccccc12", "IkBa stabilization activation": "inconclusive: 2.93% [signal inhibitor]"},
      {"compound": "Cc1cc(C)cc(NC(=O)C(=O)NCCCN2CCOCC2)c1", "IkBa stabilization activation": "inconclusive: 8.68% [signal inhibitor]"},
      {"compound": "CCN(CC)S(=O)(=O)c1ccc(Nc2nc3ccccc3n3nnnc23)cc1", "Potency": "inconclusive: 0.501 µM [signal inhibitor, full curve]"},
      {"compound": "CCc1cc(C(=O)OC)c(NC(=O)CC2NCCNC2=O)s1", "note": "(stereo not given)", "IkBa stabilization activation": "inactive"},
      {"compound": "CC1CCCCN1CCCNC(=O)c1ccc2c(c1)sc1nc(-c3ccc(F)cc3)cn12", "note": "(stereo not given)", "IkBa stabilization activation": "inconclusive: 2.31% [signal inhibitor]"},
      {"compound": "C=CC(C)(O)CCCC(C)CCCC(C)CCCC(C)C", "note": "(stereo not given)", "IkBa stabilization activation": "inactive"},
      {"compound": "CCc1ccc(Oc2c(C(F)(F)F)oc3c(CN4CCN(CC)CC4)c(O)ccc3c2=O)cc1", "IkBa stabilization activation": "inconclusive: 4.42% [signal inhibitor]"},
      {"compound": "COc1ccc(C(=O)NCC(c2ccc(N(C)C)cc2)N2CCCC2)cc1", "note": "(stereo not given)", "IkBa stabilization activation": "inconclusive: 2.23% [signal inhibitor]"},
      {"compound": "CC(=O)c1ccc(N2CCN(c3nc4c(S(=O)(=O)c5ccc(C)c(C)c5)nnn4c4ccc(Cl)cc34)CC2)cc1", "IkBa stabilization activation": "inconclusive: -0.789% [signal inhibitor]"},
      {"compound": "Cc1cc(C)cc(-n2ccnc2SCC(=O)Nc2ccc(C)cc2C)c1", "IkBa stabilization activation": "inconclusive: 2.16% [signal inhibitor]"},
      {"compound": "CCC(=O)N1CCc2cc(Br)cc(S(=O)(=O)CCC(=O)N3CCN(c4ccc(OC)cc4)CC3)c21", "IkBa stabilization activation": "inactive"},
      {"compound": "O=C(CCCn1c(=O)c2ccccc2n(CC(=O)Nc2cccc(Cl)c2)c1=O)NCc1ccc2c(c1)OCO2", "IkBa stabilization activation": "inconclusive: 9.77% [signal inhibitor]"},
      {"compound": "CCC(C(=O)Nc1cc(OC)ccc1OC)n1c(=O)c(C(F)(F)F)nc2ccccc21", "note": "(stereo not given)", "IkBa stabilization activation": "inconclusive: -1.86% [signal inhibitor]"},
      {"compound": "COc1ccc(-c2nc3cnc(N4CCNCC4)nc3n(CCc3ccccc3)c2=O)cc1", "IkBa stabilization activation": "inactive: -0.382% [at 11.4 µM, scaled: untreated 0%, proteasome inhibitor 100%]"},
      {"compound": "CCC(=O)Nc1ccccc1-c1nc2ccccc2n(C(C)C(=O)Nc2cccc(Cl)c2C)c1=O", "note": "(stereo not given)", "IkBa stabilization activation": "inactive"},
      {"compound": "Cc1occc1-c1nc(-c2ccncc2)no1", "IkBa stabilization activation": "inactive"},
      {"compound": "Cc1c(NC(=O)c2cc(-n3cnnc3)ccc2Cl)cccc1-c1nc2ccccc2o1", "IkBa stabilization activation": "inconclusive: 3.63% [signal inhibitor]"},
      {"compound": "COCCn1c(C)cc(O)c(C(c2ccc(Cl)cc2)N2CCN(c3ccccc3)CC2)c1=O", "note": "(stereo not given)", "IkBa stabilization activation": "inconclusive: 1.75% [signal inhibitor]"},
      {"compound": "CN1C(C(=O)c2ccccc2)=C(NC(=O)c2ccccc2Br)c2ccccc2S1(=O)=O", "IkBa stabilization activation": "inconclusive: 1.28% [signal inhibitor]"},
      {"compound": "OC[C@@H]1O[C@@H](n2cnc3c(NC4CCCCC4)ncnc32)[C@@H](O)[C@H]1O", "Potency": "inconclusive: 12.6 µM [rising, full curve]"},
      {"compound": "CCc1ccc(NC(=O)Cc2csc(COc3cccc(C)c3)n2)cc1", "IkBa stabilization activation": "inconclusive: 4.41% [signal inhibitor]"},
      {"compound": "O=c1n(Cc2ccc(Cl)cc2)c2ccccc2c2nc(-c3ccccc3)nn12", "IkBa stabilization activation": "inactive"},
      {"compound": "Cc1nc2ccc(S(=O)(=O)NC(C(=O)N3CCN(c4ccc(Cl)cc4)CC3)C(C)C)cc2s1", "note": "(stereo not given)", "IkBa stabilization activation": "inconclusive: 1.57% [signal inhibitor]"},
      {"compound": "O=C(CSc1nnc(Cc2cccs2)n1Cc1ccco1)Nc1ccc(Br)cc1", "IkBa stabilization activation": "inconclusive: -7.6% [signal inhibitor]"},
      {"compound": "CCn1c(=O)cc(SCC(=O)NCCc2cccc(C)c2)c2ccccc21", "IkBa stabilization activation": "inconclusive: 2.01% [signal inhibitor]"},
      {"compound": "CCN1C(=O)c2cccc3c(NC(=O)c4ccc5c(c4)OCCO5)ccc1c23", "IkBa stabilization activation": "inactive"},
      {"compound": "Cc1ccc(C)c(OCCn2cc(C(=O)c3cccs3)c3ccccc32)c1", "IkBa stabilization activation": "inconclusive: 2.78% [signal inhibitor]"},
      {"compound": "Cc1cc(C)n(-c2ccc(C(=O)OCC(=O)c3c(N)n(C)c(=O)n(C)c3=O)cc2)n1", "IkBa stabilization activation": "inconclusive: 2.12% [signal inhibitor]"},
      {"compound": "CC1CCN(S(=O)(=O)c2ccc(F)c(C(=O)O)c2)CC1", "IkBa stabilization activation": "inactive"},
      {"compound": "Cc1cccc(C(=O)N2CCc3cc(CNC(=O)c4ccc(Br)o4)ccc32)c1", "IkBa stabilization activation": "inconclusive: -0.722% [signal inhibitor]"},
      {"compound": "COc1cccc(C(c2nnnn2Cc2ccccc2)N2CCN(C(=O)c3ccco3)CC2)c1OC", "note": "(stereo not given)", "IkBa stabilization activation": "inactive"},
      {"compound": "CCOC(=O)c1c(C)nc(-c2ccccc2)nc1N", "IkBa stabilization activation": "inactive"},
      {"compound": "COCc1cc(C)nc2sc(C(=O)Nc3ccc(OC(F)(F)F)cc3)c(N)c12", "IkBa stabilization activation": "inconclusive: 3.01% [signal inhibitor]"}
    ]}
  ]
}
